Source: paper PMC9911399, “Two distinct binding modes provide the RNA-binding protein RbFox with extraordinary sequence specificity”
Where a chain is given by its changes, count along the chain named. Some of the results follow.

B1: UCAUCGU (DNA:RNA)
RNA: GGGAGACCGGAAUUCAGAUUGUCCUCAUCGUUUAAAUCCCGUCGUAGCCACCA
DNA 1: CAATCTGAATTCCGGTCTCCC
DNA 2: TGGTGGCTACGACGGGATT
B2: UGAUGAA (DNA:RNA)
RNA: B1 RNA with C26G, C29G, G30A, U31A
DNA 1: CAATCTGAATTCCGGTCTCCC
DNA 2: TGGTGGCTACGACGGGATT
B3: AAGCUGU (DNA:RNA)
RNA: B1 RNA with U25A, C26A, A27G, U28C, C29U
DNA 1: CAATCTGAATTCCGGTCTCCC
DNA 2: TGGTGGCTACGACGGGATT
B4: GUAACAG (DNA:RNA)
RNA: B1 RNA with U25G, C26U, U28A, G30A, U31G
DNA 1: CAATCTGAATTCCGGTCTCCC
DNA 2: TGGTGGCTACGACGGGATT
B5: UGUCAGU (DNA:RNA)
RNA: B1 RNA with C26G, A27U, U28C, C29A
DNA 1: CAATCTGAATTCCGGTCTCCC
DNA 2: TGGTGGCTACGACGGGATT
B6: GAUCGUC (DNA:RNA)
RNA: GGGAGACCGGAAUUCAGAUUGUCCGAUCGUCUUAAAUCCCGUCGUAGCCACCA
DNA 1: CAATCTGAATTCCGGTCTCCC
DNA 2: TGGTGGCTACGACGGGATT
B7: CAGCAAA (DNA:RNA)
RNA: B6 RNA with G25C, U27G, G29A, U30A, C31A
DNA 1: CAATCTGAATTCCGGTCTCCC
DNA 2: TGGTGGCTACGACGGGATT
B8: UGCGUGC (DNA:RNA)
RNA: B1 RNA with C26G, A27C, U28G, C29U, U31C
DNA 1: CAATCTGAATTCCGGTCTCCC
DNA 2: TGGTGGCTACGACGGGATT
B9: CACAUGC (DNA:RNA)
RNA: B6 RNA with G25C, U27C, C28A, G29U, U30G
DNA 1: CAATCTGAATTCCGGTCTCCC
DNA 2: TGGTGGCTACGACGGGATT
B10: GCAUCUA (DNA:RNA)
RNA: B1 RNA with U25G, G30U, U31A
DNA 1: CAATCTGAATTCCGGTCTCCC
DNA 2: TGGTGGCTACGACGGGATT
B11: UCGUCCA (DNA:RNA)
RNA: B1 RNA with A27G, G30C, U31A
DNA 1: CAATCTGAATTCCGGTCTCCC
DNA 2: TGGTGGCTACGACGGGATT
B12: UCUCAGU (DNA:RNA)
RNA: B1 RNA with A27U, U28C, C29A
DNA 1: CAATCTGAATTCCGGTCTCCC
DNA 2: TGGTGGCTACGACGGGATT
B13: UCUCAAA (DNA:RNA)
RNA: B6 RNA with G25U, A26C, G29A, U30A, C31A
DNA 1: CAATCTGAATTCCGGTCTCCC
DNA 2: TGGTGGCTACGACGGGATT
B14: CGGAGAU (DNA:RNA)
RNA: B6 RNA with G25C, A26G, U27G, C28A, U30A, C31U
DNA 1: CAATCTGAATTCCGGTCTCCC
DNA 2: TGGTGGCTACGACGGGATT
B15: GUCUGAA (DNA:RNA)
RNA: B6 RNA with A26U, U27C, C28U, U30A, C31A
DNA 1: CAATCTGAATTCCGGTCTCCC
DNA 2: TGGTGGCTACGACGGGATT
B16: GUGCCCA (DNA:RNA)
RNA: B6 RNA with A26U, U27G, G29C, U30C, C31A
DNA 1: CAATCTGAATTCCGGTCTCCC
DNA 2: TGGTGGCTACGACGGGATT
B17: UACUGUA (DNA:RNA)
RNA: B6 RNA with G25U, U27C, C28U, C31A
DNA 1: CAATCTGAATTCCGGTCTCCC
DNA 2: TGGTGGCTACGACGGGATT
B18: UUAAUUC (DNA:RNA)
RNA: B6 RNA with G25U, A26U, U27A, C28A, G29U
DNA 1: CAATCTGAATTCCGGTCTCCC
DNA 2: TGGTGGCTACGACGGGATT
B19: AUCCAUG (DNA:RNA)
RNA: B6 RNA with G25A, A26U, U27C, G29A, C31G
DNA 1: CAATCTGAATTCCGGTCTCCC
DNA 2: TGGTGGCTACGACGGGATT
B20: GACAUGC (DNA:RNA)
RNA: B6 RNA with U27C, C28A, G29U, U30G
DNA 1: CAATCTGAATTCCGGTCTCCC
DNA 2: TGGTGGCTACGACGGGATT

What follows are binders tested against T1, RBFOX1 RRM RbFoxmut (Fox-RRM*) (Homo sapiens, UniProt Q9NWB1 109-208, R118D;E147R;N151S;E152T) (assay: EMSA; HiTS-Eq, 1 nM pool, 10 min; buffer printed only for the single-RNA assays: 10 mM Tris pH 7.5, 150 mM NaCl, 3.4 mM EDTA, 0.001% NP-40, 30 C). Conditions: tags: His6 N-terminal (pET28a); label: 5' 32P.
T1 sequence: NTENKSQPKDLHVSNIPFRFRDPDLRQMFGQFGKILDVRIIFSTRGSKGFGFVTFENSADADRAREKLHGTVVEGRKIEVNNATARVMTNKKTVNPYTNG
Method in brief: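 Purified wild-type or mutant RbFox RRM at increasing concentrations was equilibrated with 1 nM of 5′-radiolabelled RNA carrying 7 randomized nucleotides for 10 min in 50 µL. Unbound RNA was separated by 8% native PAGE and sequenced. Relative association constants came from read-count changes of each RNA species compared with the control reaction, normalised to the cognate motif.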

Row | Binder | binding signal
1 | B1 | 0.0999 KA relative to UGCAUGU
2 | B2 | 0.122 KA relative to UGCAUGU
3 | B3 | 0.0894 KA relative to UGCAUGU
4 | B4 | 0.095 KA relative to UGCAUGU
5 | B5 | 0.103 KA relative to UGCAUGU
6 | B6 | 0.148 KA relative to UGCAUGU
7 | B7 | 0.0953 KA relative to UGCAUGU
8 | B8 | 0.186 KA relative to UGCAUGU
9 | B9 | 0.105 KA relative to UGCAUGU
10 | B10 | 0.288 KA relative to UGCAUGU
11 | B11 | 0.102 KA relative to UGCAUGU
12 | B12 | 0.0795 KA relative to UGCAUGU
13 | B13 | 0.0915 KA relative to UGCAUGU
14 | B14 | 0.104 KA relative to UGCAUGU
15 | B15 | 0.0932 KA relative to UGCAUGU
16 | B16 | 0.0672 KA relative to UGCAUGU
17 | B17 | 0.173 KA relative to UGCAUGU
18 | B18 | 0.0842 KA relative to UGCAUGU
19 | B19 | 0.1 KA relative to UGCAUGU
20 | B20 | 0.0819 KA relative to UGCAUGU
